{"source": "the antibiotic and cytotoxicity screens of Wong et al. (2023)", "note": "Some of the results follow.", "data": [{"test_system": "HSkMC (human skeletal muscle cells)", "assay": "cytotoxicity call (relative viability < 0.9)", "settings": "10 µM", "values": [{"smiles": "COc1ccc(NC(=O)N(C)C[C@@H]2Oc3c(NS(C)(=O)=O)cccc3C(=O)N([C@H](C)CO)C[C@H]2C)cc1", "cytotoxicity call": "inactive"}, {"smiles": "Cl.Clc1ccc2nsnc2c1NC1=NCCN1", "cytotoxicity call": "inactive"}, {"smiles": "Cc1cccc(S(=O)(=O)N2C[C@@H](O)COC[C@H]3O[C@H](CC(=O)NCc4ccc(Cl)c(Cl)c4)CC[C@@H]32)c1", "cytotoxicity call": "inactive"}, {"smiles": "CC(=O)c1cc2ccccc2s1", "cytotoxicity call": "inactive"}, {"smiles": "C[C@H]1CN([C@@H](C)CO)C(=O)Cc2cc(NC(=O)Cc3ccccc3)ccc2O[C@@H]1CN(C)S(=O)(=O)c1cn(C)cn1", "cytotoxicity call": "inactive"}, {"smiles": "COc1ccccc1CNC(=O)C[C@@H]1C[C@@H]2c3cc(NS(=O)(=O)c4ccc(F)cc4)ccc3O[C@@H]2[C@@H](CO)O1", "cytotoxicity call": "inactive"}, {"smiles": "COC(=O)N/N=C/c1c[n+]([O-])c2ccccc2[n+]1[O-]", "cytotoxicity call": "inactive"}, {"smiles": "CCS(=O)(=O)NCC[C@@H]1CC[C@@H](NS(=O)(=O)c2cccc(F)c2)[C@@H](CO)O1", "cytotoxicity call": "inactive"}, {"smiles": "COc1ccc(NC(=O)Nc2ccc3c(c2)C(=O)N([C@@H](C)CO)C[C@@H](C)[C@H](CN(C)S(C)(=O)=O)O3)cc1", "cytotoxicity call": "inactive"}, {"smiles": "O=C([C@H]1[C@H](CO)[C@H]2Cn3c(cccc3=O)[C@@H]1N2CC1CCCC1)N1CCOCC1", "cytotoxicity call": "inactive"}, {"smiles": "Nc1nc(=O)c2nc(Br)n([C@H]3O[C@H]4CO[PH](O)(O)O[C@@H]4[C@@H]3O)c2[nH]1", "cytotoxicity call": "inactive"}, {"smiles": "Cl.N=C(N)NCCCC(N)C(=O)O", "note": "(centres undefined)", "cytotoxicity call": "inactive"}, {"smiles": "CCOC(=O)[C@@H]1[C@H](Cc2ccccc2)[C@H]2c3cc(OC)c(OC)cc3CCN2C(=O)N1c1ccc(OC)cc1", "cytotoxicity call": "inactive"}, {"smiles": "C[C@@H]1CN([C@H](C)CO)S(=O)(=O)c2ccc(C#CCC3CCCC3)cc2O[C@H]1CN(C)C(=O)c1cnccn1", "cytotoxicity call": "inactive"}, {"smiles": "C[C@@H]1CCCCO[C@@H](CN(C)Cc2ccc3c(c2)OCO3)[C@@H](C)CN([C@@H](C)CO)C(=O)c2cc(NC(=O)c3ccccc3)ccc2O1", "cytotoxicity call": "inactive"}, {"smiles": "CC(=O)/C=C/c1ccc(-c2ccc([C@H]3CC(=O)C[C@@H](c4ccccc4)C34C(=O)c3ccccc3C4=O)cc2)cc1", "cytotoxicity call": "inactive"}, {"smiles": "CC(C)NC(=O)N(C)C[C@H]1Oc2c(NS(=O)(=O)c3cn(C)cn3)cccc2C(=O)N([C@H](C)CO)C[C@H]1C", "cytotoxicity call": "inactive"}, {"smiles": "C[C@H]1CN([C@@H](C)CO)S(=O)(=O)c2ccc(C#CCN(C)C)cc2O[C@@H]1CN(C)C(=O)Nc1ccccc1F", "cytotoxicity call": "inactive"}, {"smiles": "C[C@@H]1CN([C@H](C)CO)C(=O)c2cc(NC(=O)Nc3cccc4ccccc34)ccc2O[C@H]1CN(C)C(=O)Nc1cccc2ccccc12", "cytotoxicity call": "inactive"}, {"smiles": "COCC(=O)Nc1ccc2c(c1)OC[C@@H](C)N(Cc1cccc(F)c1)C[C@@H](C)[C@@H](OC)CN(C)C2=O", "cytotoxicity call": "inactive"}, {"smiles": "COc1cccc(OC[C@@H](O)CN(CCO)CCO)c1", "cytotoxicity call": "inactive"}, {"smiles": "C[C@@H]1CN([C@H](C)CO)S(=O)(=O)c2ccc(C#Cc3ccncc3)cc2O[C@H]1CN(C)C(=O)Nc1ccc2c(c1)OCO2", "cytotoxicity call": "inactive"}, {"smiles": "COc1cccc(-c2cnc3c(c2)C(=O)N([C@H](C)CO)C[C@H](C)[C@H](CN(C)S(=O)(=O)c2cccs2)O3)c1", "cytotoxicity call": "inactive"}, {"smiles": "Cc1noc(C)c1S(=O)(=O)N(C)C[C@@H]1OCCCC[C@H](C)Oc2ccc(NS(=O)(=O)c3cn(C)cn3)cc2C(=O)N([C@@H](C)CO)C[C@H]1C", "cytotoxicity call": "inactive"}, {"smiles": "O=C(Nc1ccn([C@H]2O[C@H](CO)[C@@H](O)[C@@H]2O)c(=O)n1)c1ccccc1", "cytotoxicity call": "inactive"}, {"smiles": "C[C@@H]1CN([C@H](C)CO)C(=O)Cc2cc(NC(=O)NC3CCCCC3)ccc2O[C@@H]1CN(C)Cc1ccc(C(=O)Nc2ccccc2N)cc1", "cytotoxicity call": "inactive"}, {"smiles": "C[C@@H]1CN([C@H](C)CO)C(=O)c2cc(NS(=O)(=O)c3ccccc3)ccc2O[C@@H](C)CCCCO[C@H]1CN(C)Cc1ccc2c(c1)OCO2", "cytotoxicity call": "inactive"}, {"smiles": "C[C@H](CO)N1C[C@H](C)[C@H](CN(C)Cc2ccc(C(=O)Nc3ccccc3N)cc2)Oc2c(NC(=O)c3nc4ccccc4s3)cccc2C1=O", "cytotoxicity call": "inactive"}, {"smiles": "CC(=O)N1[C@H](Cn2cncn2)C[C@H]2CN(S(C)(=O)=O)CC[C@H]21", "cytotoxicity call": "inactive"}, {"smiles": "C[C@@H]1CCCCO[C@H](CN(C)Cc2ccc(Cl)c(Cl)c2)[C@@H](C)CN([C@@H](C)CO)C(=O)c2cc(NS(=O)(=O)c3ccc(F)cc3)ccc2O1", "cytotoxicity call": "active"}, {"smiles": "Cc1noc(C)c1S(=O)(=O)Nc1ccc2c(c1)CC(=O)N([C@@H](C)CO)C[C@H](C)[C@@H](CN(C)C(=O)NC1CCCCC1)O2", "cytotoxicity call": "inactive"}, {"smiles": "C[C@H](CO)N1C[C@H](C)[C@H](CN(C)Cc2ccc(-c3ccccc3)cc2)Oc2ccc(NC(=O)Nc3ccccc3)cc2C1=O", "cytotoxicity call": "inactive"}, {"smiles": "COc1ccc(NC(=O)N(C)C[C@H]2Oc3c(NC(=O)c4cc(C)nn4C)cccc3C(=O)N([C@@H](C)CO)C[C@H]2C)cc1", "cytotoxicity call": "inactive"}, {"smiles": "C[C@H]1CN([C@@H](C)CO)C(=O)c2cccc(NC(=O)c3ccc(-c4nccs4)cc3)c2O[C@H]1CN(C)CC1CCCCC1", "cytotoxicity call": "inactive"}, {"smiles": "Cc1noc(C)c1NC(=O)Nc1ccc2c(c1)C(=O)N([C@H](C)CO)C[C@H](C)[C@H](CN(C)S(=O)(=O)c1ccc(F)cc1)OCCCC[C@@H](C)O2", "cytotoxicity call": "inactive"}, {"smiles": "C[C@@H]1CN([C@H](C)CO)C(=O)c2cc(NC(=O)NC3CCCCC3)ccc2O[C@@H](C)CCCCO[C@@H]1CN(C)S(=O)(=O)c1ccc(Cl)cc1", "cytotoxicity call": "inactive"}, {"smiles": "Cc1ccc(S(=O)(=O)N(C)C[C@@H]2OCCCC[C@H](C)Oc3ccc(NC(=O)Nc4ccccc4)cc3C(=O)N([C@H](C)CO)C[C@@H]2C)cc1", "cytotoxicity call": "inactive"}, {"smiles": "O=CC(O)C(O)C(O)CO", "note": "(centres undefined)", "cytotoxicity call": "inactive"}, {"smiles": "C[C@@H]1CN([C@H](C)CO)C(=O)c2cccc(NC(=O)CCCCCC(=O)Nc3ccccc3N)c2O[C@H]1CN(C)Cc1ccccc1", "cytotoxicity call": "inactive"}]}]}
